The results in this text go back to patent US20240383990A1 (DIAGONAL THERAPEUTICS, published 2024).

Like-named read-outs stand apart in the source and are kept apart here.

Holding throughout (assay): cell-based or functional assay
Experiment [1] deals with T1, ALK1 / BMPRII receptor pair (BMPR Type I receptor ALK1 and BMPR Type II receptor BMPRII) on cells (UniProt P37023 22-503; Q13873 27-1038, limits assumed).
The target in experiment [2] is T1, ALK1 / BMPRII receptor pair (BMPR Type …). This is another data set of the same source.
Experiment [3] has the same target. The source holds these as a separate data set.
The target is the same in experiment [4]. This is another data set of the same source.
Experiment [5] has the same target. The source holds these as a separate data set.

T1 sequence (P37023 22-503 limits assumed, chain 1 of 2): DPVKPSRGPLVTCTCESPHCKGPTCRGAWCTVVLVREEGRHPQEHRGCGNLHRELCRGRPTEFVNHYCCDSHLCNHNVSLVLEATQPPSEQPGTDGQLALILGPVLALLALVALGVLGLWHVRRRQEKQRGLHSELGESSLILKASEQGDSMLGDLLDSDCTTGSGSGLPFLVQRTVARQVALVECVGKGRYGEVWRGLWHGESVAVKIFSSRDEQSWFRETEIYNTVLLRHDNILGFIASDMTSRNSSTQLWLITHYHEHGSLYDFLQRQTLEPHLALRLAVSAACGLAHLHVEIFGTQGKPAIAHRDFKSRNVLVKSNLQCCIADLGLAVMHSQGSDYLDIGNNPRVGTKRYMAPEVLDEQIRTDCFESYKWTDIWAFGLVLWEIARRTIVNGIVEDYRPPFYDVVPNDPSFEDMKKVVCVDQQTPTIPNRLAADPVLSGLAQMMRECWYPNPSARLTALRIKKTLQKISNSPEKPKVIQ
T1 sequence (Q13873 27-1038 limits assumed, chain 2 of 2, further chain): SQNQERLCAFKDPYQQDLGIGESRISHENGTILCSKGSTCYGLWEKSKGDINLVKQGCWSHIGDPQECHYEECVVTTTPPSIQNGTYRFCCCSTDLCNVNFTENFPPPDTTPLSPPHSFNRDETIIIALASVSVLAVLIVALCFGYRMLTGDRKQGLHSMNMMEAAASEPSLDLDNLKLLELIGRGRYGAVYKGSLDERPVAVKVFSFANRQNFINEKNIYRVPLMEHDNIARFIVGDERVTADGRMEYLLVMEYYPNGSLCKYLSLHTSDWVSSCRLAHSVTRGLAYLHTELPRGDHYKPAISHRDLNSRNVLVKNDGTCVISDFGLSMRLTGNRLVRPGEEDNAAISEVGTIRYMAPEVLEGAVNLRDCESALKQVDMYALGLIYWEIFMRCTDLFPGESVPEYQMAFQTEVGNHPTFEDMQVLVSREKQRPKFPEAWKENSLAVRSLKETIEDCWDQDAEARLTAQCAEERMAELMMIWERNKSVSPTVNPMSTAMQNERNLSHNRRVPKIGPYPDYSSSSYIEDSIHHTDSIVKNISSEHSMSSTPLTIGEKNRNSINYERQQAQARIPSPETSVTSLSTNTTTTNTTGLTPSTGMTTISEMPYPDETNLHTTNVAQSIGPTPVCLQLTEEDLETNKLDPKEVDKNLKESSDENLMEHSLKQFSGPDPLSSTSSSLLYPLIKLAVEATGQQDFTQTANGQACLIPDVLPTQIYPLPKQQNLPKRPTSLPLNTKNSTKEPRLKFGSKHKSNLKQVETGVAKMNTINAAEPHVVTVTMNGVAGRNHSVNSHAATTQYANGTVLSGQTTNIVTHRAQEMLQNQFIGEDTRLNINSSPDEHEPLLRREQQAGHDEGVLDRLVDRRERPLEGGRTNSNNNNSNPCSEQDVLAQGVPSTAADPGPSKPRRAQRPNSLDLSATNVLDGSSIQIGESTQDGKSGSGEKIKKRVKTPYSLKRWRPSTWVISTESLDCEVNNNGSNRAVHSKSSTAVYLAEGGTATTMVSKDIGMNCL

B1: DGL292 (bispecific antibody, human IgG1, lambda)
heavy: EVQLLESGGGLVQPGGSLRLSCAASGFTFSDYYMTWIRQAPGKGLEWVSSISGGSTYYADSRKGRFTISRDNSENTLYLQMNSLRAEDTAVYYCARDFGVAGWFGQYGMDVWGQGTLVTVSSPAPNLLGGPEVQLLESGGGLVQPGGSLRLSCAASGFTFSSYAMSWVRQAPGKGLEWVANINQDGSEKNYVDSMRGRFTISRDNSKNTLYLQMNSLRAEDTAVYYCAREFDYWGQGTLVTVTSSASTKGPSVFPLAPSSKSTSGGTAALGCLVKDYFPEPVTVSWNSGALTSGVHTFPAVLQSSGLYSLSSVVTVPSSSLGTQTYICNVNHKPSNTKVDKKV[letters of human IgG1 Fc with L234A L235A G237A (EU numbers) left out]
light: QSVLTQPPSASGTPGQRVTISCTGSSSNIGAGYDVHWYQQLPGTAPKLLIYRSNQRPSGVPDRFSGSKSGTSASLAISGLRSEDEADYYCSSYAGNYNLVFGGGTKLTVLPAPNLLGGPQSVLAQPPSASGTPGQRVTISCSGSSSNIGSNYVYWYQQLPGTAPKLLIYGNNKRPSGVPDRFSGSKSGTSASLAISGLRSEDEADYYCAAWDDSLNGRVFGGGTKLTVLGQPKAAPSVTLFPPSSEELQANKATLVCLISDFYPGAVTVAWKADSSPVKAGVETTTPSKQSNNKYAASSYLSLTPEQWKSHRSYSCQVTHEGSTVEKTVAPTECS
Take B1: in experiment [1], the “Agonist activity, % Emax BMP9” value was 74 % Emax BMP9; the “Agonist activity, EC50” value was 0.09 nM; the “Agonist activity, EMAX (RLU)” value stood at 1.96e+06 RLU. Besides, in experiment [2], the “Agonist activity, % Emax BMP9” value is 74 % Emax BMP9; the “Agonist activity, EC50” value turned out to be 0.09 nM; the “Agonist activity, EMAX (RLU)” value was 1.96e+06 RLU. In experiment [3], the “pSMAD1 ELISA in HUVEC, RLU 15 minutes, at 0 nM (baseline)” value was 4.6 RLU; the “pSMAD1 ELISA in HUVEC, RLU 15 minutes, at 0.4 nM” value turned out to be 4.6 RLU; the “pSMAD1 ELISA in HUVEC, RLU 15 minutes, at 2 nM” value worked out at 5.7 RLU; the “pSMAD1 ELISA in HUVEC, RLU 15 minutes, at 10 nM” value worked out at 6.7 RLU. Moreover, in experiment [3], the “pSMAD1 ELISA in HUVEC, RLU 60 minutes, at 0 nM (baseline)” value was found to be 4.4 RLU; the “pSMAD1 ELISA in HUVEC, RLU 60 minutes, at 0.4 nM” value turned out to be 23.7 RLU; the “pSMAD1 ELISA in HUVEC, RLU 60 minutes, at 2 nM” value stood at 32.3 RLU; the “pSMAD1 ELISA in HUVEC, RLU 60 minutes, at 10 nM” value was 33.9 RLU. Besides, the “Agonist activity, % Emax BMP9 (DiscoverX assay, average of two experiments)” value in experiment [4] is 57 % Emax BMP9. For the same molecule, the “Agonist activity in DiscoverX assay, % Emax BMP9” value in experiment [5] is 60 % Emax BMP9.
